This is one part of the list. At the low end of the ranking the order means little.

In the assay the target is T1, GST-Rok (full length) (UniProt O34857).
T1 sequence: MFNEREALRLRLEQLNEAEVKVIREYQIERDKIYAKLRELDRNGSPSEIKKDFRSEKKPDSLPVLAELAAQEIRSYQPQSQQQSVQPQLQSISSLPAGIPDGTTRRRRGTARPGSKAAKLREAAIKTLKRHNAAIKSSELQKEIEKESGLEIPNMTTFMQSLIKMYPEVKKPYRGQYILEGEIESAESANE
As to the kind of experiment: protein binding microarray.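 Further: rank score from −0.5 (least bound) to 0.5 (best bound).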 The conditions noted are these: Rok is a gene silencer of Bacillus subtilis; high values mean tight binding; most listed sequences are background and not binding sites; double strand, one strand shown.
ACTGGTCG came in with a binding signal of -0.264 E-score.

Turning to CAGGTCCG, the binding signal was -0.16 E-score. Take GCGTAGAA: the binding signal amounted to 0.144 E-score. TTAACGAA gave a binding signal of 0.272 E-score.

CCTACAAC displayed a binding signal of 0.207 E-score. With ATGATAAT the figure was 0.286 E-score; with CAGAATCA, 0.0922 E-score; with CAAACATC, -0.0255 E-score. As to CTATAGCC, the binding signal is -0.00463 E-score. The sequence TATTCAGA showed a binding signal of -0.096 E-score.

In the case of CCGCCCAA, the binding signal is -0.0841 E-score. The value for CTGAACCA was -0.156 E-score. Sequence CCGCGATA registered a binding signal of 0.183 E-score. GCCAGAGC showed a binding signal of -0.23 E-score. For AACATGGA, the binding signal was 0.113 E-score. With AATTGTAC the figure was 0.341 E-score; with AAGTCAGA, 0.0934 E-score. The value for CTTTAGAC was 0.0252 E-score; that for CCCTCCGA was -0.323 E-score.

For ACTAGTTG, the binding signal turned out to be 0.313 E-score.

ATCAAGTA came in with a binding signal of -0.0272 E-score.

The sequence AACCCGGT displayed a binding signal of -0.125 E-score. In turn, AGAAACTG yielded a binding signal of 0.12 E-score.

AAGCCAGG showed a binding signal of -0.224 E-score. In turn, AATAGGAA displayed a binding signal of -0.0404 E-score. Take ATTATTCG: the binding signal is 0.208 E-score.

CCAGCTCC gave a binding signal of -0.289 E-score. AACCACAC came in with a binding signal of 0.158 E-score.

Turning to GGCTTGGA, the binding signal is -0.396 E-score.

Turning to GGGGATTA, the binding signal is -0.193 E-score. Sequence ACCGATCA yielded a binding signal of 0.0479 E-score. For TCCTTCAA, the binding signal is -0.0819 E-score. With ACGCGCCG the figure was -0.208 E-score; with CACATACG, 0.0188 E-score; with GCATGCGC, -0.207 E-score. Regarding CTTCGCAC, the binding signal is -0.121 E-score. In the case of CGTATATC, the binding signal was 0.196 E-score. The value for ATGGCCGG was -0.197 E-score; that for CACGTCCC was -0.192 E-score; that for ACTGATAC was 0.229 E-score.

Sequence CCCTAAAC showed a binding signal of -0.103 E-score. On to CAACGCAA, for which the binding signal was 0.146 E-score. On to ACTTAGGA, for which the binding signal was found to be 0.0169 E-score.

ATAGACCA returned a binding signal of 0.0733 E-score. AGAGTCGC returned a binding signal of -0.337 E-score. Take ATCCCGTC: the binding signal was -0.236 E-score.

Sequence GCACGATA returned a binding signal of 0.0459 E-score. Sequence AAGGGGTA registered a binding signal of -0.0589 E-score.

Turning to ACACCTTA, the binding signal was determined as 0.0501 E-score.

On to AGCCGAAG, for which the binding signal was -0.166 E-score. In turn, CAAGAATG had a binding signal of -0.116 E-score. Consider AACAATCA, for which the binding signal came to 0.0905 E-score.

The sequence CATACATC came in with a binding signal of 0.158 E-score. Regarding CGGCCTAC, the binding signal was -0.189 E-score. The sequence GCTTAACA displayed a binding signal of 0.0509 E-score. The sequence CACTTCTC showed a binding signal of 0.0204 E-score. Turning to GTGATACA, the binding signal was found to be 0.221 E-score. The value for ACGGAGTC was -0.19 E-score. ATGAACAG displayed a binding signal of 0.112 E-score. With ACAGAGAC the figure was -0.158 E-score; with AAAGTGGA, -0.07 E-score.

Sequence CCTCGCTC gave a binding signal of -0.0993 E-score.

On to CGACGAAA, for which the binding signal is -0.0866 E-score.

CCGTCCTA: the binding signal is -0.0489 E-score. Sequence CGCATCCG displayed a binding signal of -0.187 E-score. As for AGGTAAAT, the binding signal was found to be 0.317 E-score. In the case of CCCACAGA, the binding signal worked out at 0.0146 E-score. For TACACAGA, the binding signal is 0.27 E-score. CTGCTGTA displayed a binding signal of 0.158 E-score. For the sequence CTTCGAGC, the binding signal is -0.254 E-score.

Take AGAGTTCA: the binding signal is -0.112 E-score.

Consider ACCTCATG, for which the binding signal was -0.12 E-score.

As to TAATTTGA, the binding signal is 0.229 E-score.

The sequence ATTCTGAC registered a binding signal of -0.0998 E-score. As to GGGCTCAA, the binding signal was -0.377 E-score. The value for AGATCTCA was 0.141 E-score; that for AACTAGAA was 0.395 E-score. CCACAACA registered a binding signal of 0.0336 E-score. In turn, CGGATTTC registered a binding signal of -0.0204 E-score. GCGGACCA had a binding signal of -0.127 E-score.

As for ACCCGCGG, the binding signal was -0.211 E-score. Regarding GGGAAAGA, the binding signal is -0.206 E-score. The value for ATAGTAAC was 0.366 E-score; that for CGACCGAA was -0.161 E-score; that for ACAACGGT was -0.218 E-score. In turn, CGATTTGC gave a binding signal of 0.0234 E-score.

Turning to AAGAGCAA, the binding signal was -0.265 E-score.

Sequence ACACAGCC registered a binding signal of -0.0987 E-score.

On to CTGATACC, for which the binding signal came out at 0.135 E-score. The value for CCTATTTA was 0.276 E-score; that for GAGTAGTA was 0.311 E-score; that for ACTACCTC was 0.242 E-score.

AGGACGAC returned a binding signal of -0.139 E-score. The value for ATACGTTC was 0.136 E-score; that for AATTAGTG was 0.322 E-score. AATAAAAC came in with a binding signal of 0.0879 E-score. The sequence GGAGCGCA returned a binding signal of -0.294 E-score. Sequence GTCCTAAC yielded a binding signal of -0.0146 E-score. The value for CGACGACC was -0.199 E-score; that for GAGCAATC was -0.049 E-score. With TATAGTCA, the binding signal came to 0.159 E-score.

In the case of AAGGCCAC, the binding signal was -0.294 E-score. The value for ACTAGTCG was 0.292 E-score. With CAAAAAGC, the binding signal was -0.279 E-score.

ATAGGTCC yielded a binding signal of 0.123 E-score. In the case of CCGTACGG, the binding signal is -0.148 E-score. In turn, AGACTACT returned a binding signal of 0.209 E-score.

The sequence CTGTGTTA displayed a binding signal of -0.0392 E-score. In turn, CCGTTCAC displayed a binding signal of -0.099 E-score. Take CTCCCGAA: the binding signal is -0.224 E-score.
